In PMC4336329 (PLoS ONE, 2015):
In all, about 310,000 compounds went through this assay and about 14,000 (4.5%) showed an effect of 50% or more. Effects have a minus sign here. This is one part of the list.

What follows are molecules tested against human ether-à-go-go-related gene (hERG) potassium channel (human, UniProt Q12809) (assay: primary screen, population patch clamp on CHO cells stably expressing hERG).
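Note: peak tail current of the secondary pulse compared with the same well before compound.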

human ether-à-go-go-related gene (hERG) potassium channel, sequence (Q12809 whole entry, looked up): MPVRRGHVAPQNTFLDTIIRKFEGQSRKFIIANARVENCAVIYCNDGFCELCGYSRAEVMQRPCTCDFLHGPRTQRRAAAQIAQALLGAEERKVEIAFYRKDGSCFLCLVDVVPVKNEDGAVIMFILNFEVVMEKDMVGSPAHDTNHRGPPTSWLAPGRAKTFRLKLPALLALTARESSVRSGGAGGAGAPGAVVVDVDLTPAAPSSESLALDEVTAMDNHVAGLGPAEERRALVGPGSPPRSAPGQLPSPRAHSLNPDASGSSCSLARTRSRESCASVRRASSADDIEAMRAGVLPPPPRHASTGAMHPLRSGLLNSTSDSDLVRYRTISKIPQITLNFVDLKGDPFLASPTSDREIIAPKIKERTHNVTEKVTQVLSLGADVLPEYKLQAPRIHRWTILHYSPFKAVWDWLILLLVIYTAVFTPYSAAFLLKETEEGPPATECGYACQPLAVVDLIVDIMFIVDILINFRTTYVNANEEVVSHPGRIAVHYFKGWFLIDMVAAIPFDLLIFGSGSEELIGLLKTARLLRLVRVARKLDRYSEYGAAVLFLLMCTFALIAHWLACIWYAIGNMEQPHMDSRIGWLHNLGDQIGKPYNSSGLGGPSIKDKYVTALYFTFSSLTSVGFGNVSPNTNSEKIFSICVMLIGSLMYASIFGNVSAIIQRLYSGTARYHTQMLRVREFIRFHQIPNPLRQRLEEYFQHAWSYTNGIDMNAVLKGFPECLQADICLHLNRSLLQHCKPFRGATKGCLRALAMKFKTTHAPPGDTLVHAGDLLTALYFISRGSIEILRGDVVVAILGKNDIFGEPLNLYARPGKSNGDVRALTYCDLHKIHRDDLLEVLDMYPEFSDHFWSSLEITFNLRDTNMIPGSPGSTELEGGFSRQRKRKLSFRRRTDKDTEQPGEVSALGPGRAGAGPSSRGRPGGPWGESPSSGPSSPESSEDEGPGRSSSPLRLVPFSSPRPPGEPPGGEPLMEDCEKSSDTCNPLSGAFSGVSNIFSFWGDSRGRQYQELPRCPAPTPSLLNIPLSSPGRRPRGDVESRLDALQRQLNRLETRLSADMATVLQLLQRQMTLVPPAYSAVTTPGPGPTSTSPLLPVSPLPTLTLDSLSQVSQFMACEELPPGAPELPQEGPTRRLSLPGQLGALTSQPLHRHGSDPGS

Compound	hERG current change (%, negative = inhibition) at 10uM [%]
Oc1ccccc1C(=S)N1CCCCC1	14.5
Cc1ccc(C)c2[nH]c(=O)c(CCNC(=O)c3ccc(S(=O)(=O)N(C)C)cc3)cc12	0.852
CCOC(=O)C(=O)C1=CN(Cc2ccccc2)C=C(C#N)C1	18
Cc1cc(C)cc(OCC(=O)NCc2cc(C)nc3ccccc23)c1	-32.4
CC(=O)Nc1ccc(S(=O)(=O)NC2(C(F)(F)F)NC(=O)N(C3CCCCC3)C2=O)cc1 (stereo not shown)	2.87
CN(C)CCNC(=O)c1cc2c(s1)-c1ccccc1OC2	-67.2
Cc1cc(SCCC(=O)O)nc2ccccc12	22.1
O=C(Nc1ccc(F)cc1)Nc1ccc2ccccc2n1	14.2
O=C(O)c1ccc(CP(=O)(c2ccccc2)c2ccccc2)cc1	22.4
COc1cc(OC)cc(C(=O)Nc2cccc3ccccc23)c1	12.4
COc1ccc(C(CNC(=O)c2ccc(OC)c(S(=O)(=O)N3CCCC3)c2)N2CCCC2)cc1 (stereo not shown)	9.12
COc1ccc(C(=O)Nc2ccc3c(c2)OCO3)cc1OC	-12.6
COc1ccc(C2Nc3cc(OC)ccc3-n3cccc32)cc1 (stereo not shown)	1.93
Cc1ccc(-c2nc3ncccn3c2Nc2ccccc2C)o1	-12.3
COc1ccc(S(=O)(=O)N2CCc3ccccc3C2)cc1OC	-18.8
COc1ccc(CN2CCCC(CO)(Cc3ccc(F)cc3)C2)c(OC)c1OC (stereo not shown)	-71.1
O=C(c1ccc(Br)s1)N1CCN(S(=O)(=O)c2ccccc2)CC1	-34.4
O=C(Nc1ccc(F)c(F)c1)c1cc(S(=O)(=O)N2CCN(c3ccccn3)CC2)ccc1F	7.19
O=C(Nc1ccccc1O)c1c(O)c2c([nH]c1=O)CCCC2	28.6
COc1cc(-n2cnnn2)ccc1S(=O)(=O)N1CCOCC1	-16.2
CCc1nc2ccccc2c(C(=O)OCCN2C(=O)c3ccccc3C2=O)c1C	-12.2
CCOC(=O)c1c(NC(=O)CNCCOC)sc2c1CCCC2	-6.27

Compound	hERG current change (%, negative = inhibition) at 10uM [%]
COc1ccccc1N1CCN(c2cc(=O)n(-c3ccccc3Cl)c(=O)[nH]2)CC1	8.28
CCOc1ccc(NC(=O)C2=NN(c3ccccc3)C(=O)CC2)cc1S(=O)(=O)N1CCCCC1	-8.8
O=C(CNc1ccc(F)cc1)N/N=C1\CCCc2ccccc21	0.412
O=C(Nc1ccc(F)cc1F)c1cc2n(n1)C(C(F)(F)F)C1CCCCC1N2 (stereo not shown)	11.1
Cc1ccc(-c2cc(-c3ccccc3C)[nH]n2)c(O)c1	-0.266
COc1ccc(CCNC(=O)CSc2nnc(Cc3cccn3C)n2C)cc1OC	1.51
O=C(Nc1ccccc1-c1ccccc1)c1cccc(C(F)(F)F)c1	11.4
Cc1cc(S(=O)(=O)N2CCN(c3ccc(F)cc3)CC2)ccc1-n1cnnn1	-21
O=C(COC(=O)c1cccs1)Nc1ccc(S(=O)(=O)N2CCOCC2)cc1	-8.57
O=C(c1ccco1)N1CCN(S(=O)(=O)c2ccc3c(c2)CCN3C(=O)C2CC2)CC1	-16.4
Cc1[nH]n(-c2ccccc2)c(=O)c1N=Nc1ccc(F)cc1	12.8
COc1ccc(C(=O)NCc2nnc(SCC(=O)N3CCCCC3)o2)cc1	29.8
Cc1ccc(-n2nnnc2SCC(=O)NCC2(N3CCCCC3)CCCCC2)c(C)c1	-284
Cc1nn(C)c(C(=O)N/N=C/c2ccncc2)c1Cl	7.35
NC(=O)C1(c2ccccc2)CCCN1C(=O)c1ccccc1Br (stereo not shown)	7.39
Cc1c(C(=O)Nc2ccccc2)sc2nc[nH]c(=O)c12	-38.1
O=C(Nc1ccc(-c2nnc(-c3ccccc3)o2)cc1)C(F)(F)F	11.3
COC(=O)CCc1c(C)c(C#N)c2nc3ccccc3n2c1N1CCCC1	0.655
COc1ccc(C)cc1NC(=O)CSc1nnc2ccc(-c3ccncc3)nn12	-48.7
O=C(NCCc1c[nH]c2ccccc12)C(=O)NCC1OCCN1S(=O)(=O)c1ccc(F)cc1 (stereo not shown)	-29.8
O=C(NC1=NCCS1)c1sc2cc(Cl)cc(Cl)c2c1Cl	15.2
CCOc1ccc(CCNC(=O)COC(=O)c2ccc(Cl)nc2)cc1OCC	6.84

Compound	hERG current change (%, negative = inhibition) at 10uM [%]
CCOc1ccc(N(C(C)C(=O)Nc2ccc(OC)cc2)S(C)(=O)=O)cc1 (stereo not shown)	-7.19
COc1cc(C(=O)NCC2CCCO2)ccc1OCc1ccccc1 (stereo not shown)	-2.26
CCOC(=O)c1c(NC(=O)C2CCCN(S(=O)(=O)c3ccccc3)C2)sc2c1CCCC2 (stereo not shown)	-3.85
Cc1cc2c(cc1C)N(C(=O)CSC1=NCCS1)C(C)(C)c1ssc(=S)c1-2	-1.12
Cc1ccc(Cl)cc1NC(=O)NCCN1CCCCC1	-24.2
COc1ccc(C2SCC(=O)N2C)cc1 (stereo not shown)	1.55
O=C1CCC(C(=O)N2CCSCC2)CN1CCc1cccc(F)c1 (stereo not shown)	13.8
Cc1ccc(C(=O)NCCCNC(=O)c2ccccc2C)cn1	4.94
COc1ccccc1CCc1nnc(CCC(=O)NC(C)Cc2cccs2)o1 (stereo not shown)	-12.6
Cc1nccn1CCCNC(=O)CC1C(=O)NCCN1Cc1ccc(F)cc1Cl (stereo not shown)	18.6
Cc1ccc(NC(=O)N2CCc3ccccc3C2)c(C)c1	1.45
Cc1onc(-c2ccccc2)c1C(=O)Nc1cccc2nsnc12	13.4
CCN(CCCC(=O)c1ccc(F)cc1)CCc1ccccc1.Cl	-84.5
COC(=O)c1ccc(COc2ccccc2/C=C(\C#N)C(=O)Nc2ccc(C)cc2C)cc1	-11.1
COc1cccc(C2Nc3cc(Cl)c(S(N)(=O)=O)cc3S(=O)(=O)N2)c1 (stereo not shown)	2.57
COC(=O)C1=C(c2ccc(OC)c(OC)c2)C[C@@H]2CC[C@H]1N2C(=O)NCCOc1ccc(OC)cc1	7.33
Cc1ncsc1C(=O)N1N=C2/C(=C/c3ccccc3)CCCC2C1c1ccccc1 (stereo not shown)	-0.298
Cc1cc(NC2C3CC4CC(C3)CC2C4)n2ncnc2n1 (stereo not shown)	-48
CCc1ccc(N(CC(=O)Nc2sc3c(c2C(=O)OC)CCCC3)S(C)(=O)=O)cc1	6.65
S=c1[nH]nc(-c2cccs2)n1/N=C/c1cn(-c2ccccc2)nc1-c1cccs1	27.4
CCC(=O)Nc1nc2ccccc2n1CCN(C)C	-0.556
O=C(Nc1nnc(-c2ccco2)o1)c1ccc([N+](=O)[O-])s1	12.6

Compound	hERG current change (%, negative = inhibition) at 10uM [%]
COc1cccc(OC)c1C(=O)Nn1c(C2CCC2)nc2ccccc2c1=O	10.4
O=C(NC1CCCCC1NC(=O)c1cccs1)c1cccs1 (stereo not shown)	7.76
CCc1nn2c(N3CCOCC3)cc(C)nc2c1-c1ccc(F)cc1	0.767
O=C(OCn1nnc2ccccc2c1=O)C12CC3CC(CC(O)(C3)C1)C2	13.5
CN(C)S(=O)(=O)c1ccc(N2CCCC2)c(C(=O)Nc2ccccc2OC(F)F)c1	-54.2
CCn1c(SCC(=O)NCCc2ccccc2)nnc1-c1cccs1	-27.6
COc1cc(/C=N/NC(=O)C2COc3ccccc3O2)ccc1O (stereo not shown)	-44.3
O=C(Nc1cnccn1)c1cccc(C(F)(F)F)c1	-3.45
COc1ccc(/C=N/Nc2ncnc3c2[nH]c2ccc(C)cc23)c(OC)c1OC	0.585
COCc1cc(C)nc(Nc2ccccc2C)c1C#N	1.19
CN(C)c1ccc(NC(=O)c2cn(-c3ccccc3)nc2-c2cccs2)cc1	6.26
Cc1ccccc1CN1CCN(S(=O)(=O)c2ccc(F)cc2)CC1	-6.15
O=C(CSc1ccc2c(c1)OCCO2)NC(=O)Cc1ccccc1	-2.78
CCCCCCn1c(SCC(C)C)nc2c1c(=O)[nH]c(=O)n2C	10.3
COc1ccccc1CNC(=O)CN1C(=O)NC2(CCCc3sccc32)C1=O (stereo not shown)	-3.06
CC(C)=CCc1c2c(c3occ(-c4ccc(O)cc4)c(=O)c3c1O)C=CC(C)(C)O2	20.3
COc1cc2c(cc1NCc1ccccn1)oc1ccccc12	-11
Cc1cc(C)c2nc(SCC(=O)N(C)C3CCS(=O)(=O)C3)cc(C)c2c1 (stereo not shown)	10.9
O=C(CSc1nnc(COc2ccc(Br)cc2)o1)NC1CCCCC1	9.55
COc1ccc(C(=S)N2CCOCC2)cc1OS(=O)(=O)c1ccc(Br)cc1	-70
O=C(Nc1ccccc1-c1ccccc1)c1cccs1	-9
Cc1ccc(C(=O)c2ccccc2C(=O)Nc2ccccc2)cc1	5.99
